pIC50: −log10 of the molar value. IC50 is the fitted dose that halves viability relative to control wells, and lower means more sensitive; where the fit passes the top or lowest dose, that dose stands as a limit. AUC, from the same fit, is the share of area under the viability curve across the 256-fold dose range; it is 1 without any effect and falls as sensitivity rises. Where the top dose is marked as inferred, it was calculated from the reported fits.
What was measured:
Assay in all cases: Viability of human cancer cell lines after 72 h of drug (GDSC screen)
[1] = compound: COc1ccc(-c2cc3nccn3c(Nc3ncccc3C(N)=O)n2)cc1OC [BAY 61-3606]; details: top dose 8 µM; top dose inferred
Experimental: (§1)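 Human cancer cell lines in 384-well plates, medium with 10% serum, drug for 72 h over a 256-fold dose range (nine 2-fold or five 4-fold steps up to the top dose). Adherent lines were fixed and stained with the nucleic acid dye Syto60, suspension lines read with resazurin; signal relative to control wells, capped at 0 and 100%. One two-parameter sigmoid per drug and line, fitted in a mixed model over all curves with the slope shared within a line.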

[2] = compound: O=C1/C(=C/c2cccs2)CC/C1=C\c1cccs1 [CCT007093]; details: top dose 6.6 µM; top dose inferred
Experimental: as §1

[3] = compound: C=CC(=O)N1CCc2ccc(-n3c(=O)ccc4cnc5ccc(-c6cnn(C)c6)cc5c43)cc21 [QL-XII-47]; details: top dose 10.24 µM; top dose inferred
Experimental: as §1

[4] = compound: CCN1CCC(n2cc(CNc3cc(Cl)c4ncc(C#N)c(Nc5ccc(F)c(Cl)c5)c4c3)nn2)CC1 [KIN001-266]; details: top dose 20 µM; top dose inferred
Experimental: as §1

Cell Line	AUC [1]	pIC50 [1]	AUC [2]	pIC50 [2]	AUC [3]	pIC50 [3]	AUC [4]	pIC50 [4]
NB(TU)1-10 (neuroblastoma, adherent)	0.674	5.85	0.968	< 5.18	0.992	< 4.99	0.861	4.87
NB-4 (acute myeloid leukaemia, suspension)	0.796	5.52	0.984	< 5.18	0.612	5.91	0.761	5.23
NCI-H23 (lung adenocarcinoma, adherent)	0.963	< 5.10	0.984	< 5.18	0.792	5.34	0.955	< 4.70
NCI-H28 (mesothelioma, adherent)	0.802	5.26	0.916	< 5.18	0.935	< 4.99	0.927	< 4.70
NCI-H64 (small cell lung carcinoma, suspension)	0.761	5.66	0.99	< 5.18	0.778	5.51	0.906	4.84
NCI-H69 (small cell lung carcinoma, suspension)	0.88	< 5.10	0.985	< 5.18	0.755	5.42	0.985	< 4.70
NCI-H82 (small cell lung carcinoma, suspension)	0.927	< 5.10	0.988	< 5.18	0.971	< 4.99	0.89	< 4.70
NCI-H187 (small cell lung carcinoma, suspension)	0.976	< 5.10	0.988	< 5.18	0.758	5.42	0.89	< 4.70
NCI-H196 (small cell lung carcinoma, adherent)	0.942	< 5.10	0.984	< 5.18	0.764	5.41	0.979	< 4.70
NCI-H209 (small cell lung carcinoma, suspension)	0.858	5.13	0.983	< 5.18	0.813	5.22	0.919	< 4.70
NCI-H211 (small cell lung carcinoma, adherent)	0.89	< 5.10	0.987	< 5.18	0.735	5.53	0.797	5.04
NCI-H226 (lung squamous cell carcinoma, adherent)	0.806	5.37	0.977	< 5.18	0.852	5.07	0.874	< 4.70
NCI-H292 (lung adenocarcinoma, adherent)	0.898	< 5.10	0.876	< 5.18	0.878	< 4.99	0.745	5.13
NCI-H322M (lung adenocarcinoma, suspension)	0.985	< 5.10	0.967	< 5.18	0.825	5.09	0.864	< 4.70
NCI-H345 (small cell lung carcinoma, suspension)	0.983	< 5.10	0.99	< 5.18	0.972	< 4.99	0.988	< 4.70
NCI-H358 (lung adenocarcinoma, adherent)	0.571	6.10	0.984	< 5.18	0.599	5.91	0.826	4.85
NCI-H441 (lung adenocarcinoma, adherent)	0.81	5.19	0.981	< 5.18	0.973	< 4.99	0.965	< 4.70
NCI-H446 (small cell lung carcinoma, semi-adherent)	0.847	5.19	0.985	< 5.18	0.681	5.67	0.855	4.75
NCI-H460 (large cell lung carcinoma, adherent)	0.719	5.71	0.949	< 5.18	0.988	< 4.99	0.885	4.74
NCI-H510A (small cell lung carcinoma, semi-adherent)	0.933	< 5.10	0.989	< 5.18	0.982	< 4.99	0.861	4.83
NCI-H520 (lung squamous cell carcinoma, adherent)	0.879	< 5.10	0.975	< 5.18	0.656	5.75	0.669	5.43
NCI-H522 (lung adenocarcinoma, adherent)	0.875	< 5.10	0.909	< 5.18	0.82	5.14	0.862	< 4.70

Cell Line	AUC [1]	pIC50 [1]	AUC [2]	pIC50 [2]	AUC [3]	pIC50 [3]	AUC [4]	pIC50 [4]
NCI-H524 (small cell lung carcinoma, suspension)	0.958	< 5.10	0.988	< 5.18	0.497	6.20	0.986	< 4.70
NCI-H526 (small cell lung carcinoma, suspension)	0.815	5.38	0.989	< 5.18	0.983	< 4.99	0.944	< 4.70
NCI-H596 (lung adenocarcinoma, adherent)	0.919	< 5.10	0.96	< 5.18	0.689	5.59	0.877	< 4.70
NCI-H647 (non-small cell lung carcinoma, adherent)	0.88	< 5.10	0.968	< 5.18	0.457	6.31	0.845	4.81
NCI-H650 (lung adenocarcinoma, adherent)	0.903	< 5.10	0.982	< 5.18	0.654	5.75	0.897	< 4.70
NCI-H661 (large cell lung carcinoma, adherent)	0.871	< 5.10	0.887	< 5.18	0.805	5.19	0.846	4.71
NCI-H720 (lung carcinoid, suspension)	0.992	< 5.10	0.992	< 5.18	0.992	< 4.99	0.963	< 4.70
NCI-H727 (lung carcinoid, adherent)	0.802	5.12	0.951	< 5.18	0.906	< 4.99	0.871	< 4.70
NCI-H747 (large intestine, adherent)	0.884	< 5.10	0.976	< 5.18	0.413	6.45	0.802	4.90
NCI-H838 (lung adenocarcinoma, adherent)	0.954	< 5.10	0.972	< 5.18	0.975	< 4.99	0.937	< 4.70
NCI-H841 (small cell lung carcinoma, adherent)	0.988	< 5.10	0.988	< 5.18	0.621	5.86	0.959	< 4.70
NCI-H847 (small cell lung carcinoma, adherent)	0.708	5.77	0.993	< 5.18	0.332	6.62	0.837	5.00
NCI-H1048 (small cell lung carcinoma, adherent)	0.814	5.42	0.967	< 5.18	0.731	5.57	0.858	4.86
NCI-H1092 (small cell lung carcinoma, suspension)	0.882	< 5.10	0.989	< 5.18	0.584	5.96	0.921	< 4.70
NCI-H1155 (large cell lung carcinoma, suspension)	0.96	< 5.10	0.992	< 5.18	0.55	6.07	0.896	4.77
NCI-H1299 (large cell lung carcinoma, adherent)	0.856	< 5.10	0.976	< 5.18	0.877	< 4.99	0.941	< 4.70
NCI-H1304 (small cell lung carcinoma, suspension)	0.85	5.17	0.985	< 5.18	0.899	< 4.99	0.934	< 4.70
NCI-H1355 (lung adenocarcinoma, adherent)	0.751	5.43	0.953	< 5.18	0.849	< 4.99	0.962	< 4.70
NCI-H1395 (lung adenocarcinoma, adherent)	0.954	< 5.10	0.918	< 5.18	0.893	< 4.99	0.865	< 4.70
NCI-H1417 (small cell lung carcinoma, suspension)	0.934	< 5.10	0.973	< 5.18	0.816	5.15	0.866	< 4.70
NCI-H1435 (lung adenocarcinoma, semi-adherent)	0.983	< 5.10	0.992	< 5.18	0.987	< 4.99	0.929	< 4.70

Reference: the supplement of paper PMC4967469
